Results: PubChem BioAssay (NCATS)
Inconclusive results, whose numbers are uncertain, are shown with a selection of clear calls. Potencies beside an inconclusive call are fits to weak or partial responses and may not hold up. The source made the active and inactive calls. Calls follow the shape of the dose curve; as a rule, active = well fitted inhibition curve with a large enough effect; inconclusive = small, poorly fitted or top-dose-only effect; inactive = no such curve, though single readings can be large or run the other way.

System: not listed separately
Assay: qHTS screen for small molecules that inhibit ELG1-dependent DNA repair: Hit Confirmation in Cell-Based Luciferin Assay (AID 624247)
Conditions: cell-free firefly luciferase luminescence counter-screen, ViewLux; series mostly up to 46.1 µM; activity change, negative = inhibition: at the top concentration
In short: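 Luminescence read by CCD imager. Wells held substrate reagent plus pinned test compound or DMSO, with luciferase added last.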
Potency is read from the fitted curve at half-maximal effect; tags tell the direction and shape of the fitted curve.

| Compound | Potency |
| --- | --- |
| CN(C)c1ccnc2sc(C(N)=O)c(N)c12 | inconclusive: 2.5 µM [inhibitor, partial curve] |
| O=C(Nc1ccc(F)cc1)N(Cc1cccs1)Cc1cc2cc3c(cc2[nH]c1=O)OCO3 | inconclusive: 35.4 µM [inhibitor, partial curve, poor fit] |
| CC(C)(C)OC(=O)NCc1ccc(NC(=O)c2nc[nH]c2C(=O)NCCCCNC(=O)c2[nH]cnc2C(=O)Nc2ccc(CNC(=O)OC(C)(C)C)cc2)cc1 | inconclusive: 25 µM [inhibitor, partial curve, poor fit] |

Molecular target: ATPase family AAA domain-containing protein 5 (Homo sapiens) (UniProt Q96QE3)
Assay: HTS assay for small molecules that inhibit ELG1-dependent DNA repair in human embryonic kidney (HEK293T) cells expressing luciferase-tagged ELG1: Hit Confirmation (AID 624248); also: nearly all actives have a fitted effect of over 55% in size;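 as to activity change, negative = inhibition: % is scaled to controls: 0 for no effect and ±100 for the full control effect; actives are inhibitors that lower the ELG1-luciferase luminescence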
Conditions: HEK293T ELG1-luciferase levels, luminescence, cells co-treated with 5-fluorouridine; series mostly up to 46.1 µM; activity change, negative = inhibition: at the top concentration
In short: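 Cells (2,000/well) received 5-Fluorouridine plus pin-transferred compound or DMSO and were incubated 16 hr at 37 °C, 5% CO2. Luciferase activity was read by ONE-Glo luminescence after 30 min at room temperature; inhibitors suppress the signal.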

Chain of UniProt Q96QE3 (Q96QE3 whole entry, looked up, the tested form may be a part): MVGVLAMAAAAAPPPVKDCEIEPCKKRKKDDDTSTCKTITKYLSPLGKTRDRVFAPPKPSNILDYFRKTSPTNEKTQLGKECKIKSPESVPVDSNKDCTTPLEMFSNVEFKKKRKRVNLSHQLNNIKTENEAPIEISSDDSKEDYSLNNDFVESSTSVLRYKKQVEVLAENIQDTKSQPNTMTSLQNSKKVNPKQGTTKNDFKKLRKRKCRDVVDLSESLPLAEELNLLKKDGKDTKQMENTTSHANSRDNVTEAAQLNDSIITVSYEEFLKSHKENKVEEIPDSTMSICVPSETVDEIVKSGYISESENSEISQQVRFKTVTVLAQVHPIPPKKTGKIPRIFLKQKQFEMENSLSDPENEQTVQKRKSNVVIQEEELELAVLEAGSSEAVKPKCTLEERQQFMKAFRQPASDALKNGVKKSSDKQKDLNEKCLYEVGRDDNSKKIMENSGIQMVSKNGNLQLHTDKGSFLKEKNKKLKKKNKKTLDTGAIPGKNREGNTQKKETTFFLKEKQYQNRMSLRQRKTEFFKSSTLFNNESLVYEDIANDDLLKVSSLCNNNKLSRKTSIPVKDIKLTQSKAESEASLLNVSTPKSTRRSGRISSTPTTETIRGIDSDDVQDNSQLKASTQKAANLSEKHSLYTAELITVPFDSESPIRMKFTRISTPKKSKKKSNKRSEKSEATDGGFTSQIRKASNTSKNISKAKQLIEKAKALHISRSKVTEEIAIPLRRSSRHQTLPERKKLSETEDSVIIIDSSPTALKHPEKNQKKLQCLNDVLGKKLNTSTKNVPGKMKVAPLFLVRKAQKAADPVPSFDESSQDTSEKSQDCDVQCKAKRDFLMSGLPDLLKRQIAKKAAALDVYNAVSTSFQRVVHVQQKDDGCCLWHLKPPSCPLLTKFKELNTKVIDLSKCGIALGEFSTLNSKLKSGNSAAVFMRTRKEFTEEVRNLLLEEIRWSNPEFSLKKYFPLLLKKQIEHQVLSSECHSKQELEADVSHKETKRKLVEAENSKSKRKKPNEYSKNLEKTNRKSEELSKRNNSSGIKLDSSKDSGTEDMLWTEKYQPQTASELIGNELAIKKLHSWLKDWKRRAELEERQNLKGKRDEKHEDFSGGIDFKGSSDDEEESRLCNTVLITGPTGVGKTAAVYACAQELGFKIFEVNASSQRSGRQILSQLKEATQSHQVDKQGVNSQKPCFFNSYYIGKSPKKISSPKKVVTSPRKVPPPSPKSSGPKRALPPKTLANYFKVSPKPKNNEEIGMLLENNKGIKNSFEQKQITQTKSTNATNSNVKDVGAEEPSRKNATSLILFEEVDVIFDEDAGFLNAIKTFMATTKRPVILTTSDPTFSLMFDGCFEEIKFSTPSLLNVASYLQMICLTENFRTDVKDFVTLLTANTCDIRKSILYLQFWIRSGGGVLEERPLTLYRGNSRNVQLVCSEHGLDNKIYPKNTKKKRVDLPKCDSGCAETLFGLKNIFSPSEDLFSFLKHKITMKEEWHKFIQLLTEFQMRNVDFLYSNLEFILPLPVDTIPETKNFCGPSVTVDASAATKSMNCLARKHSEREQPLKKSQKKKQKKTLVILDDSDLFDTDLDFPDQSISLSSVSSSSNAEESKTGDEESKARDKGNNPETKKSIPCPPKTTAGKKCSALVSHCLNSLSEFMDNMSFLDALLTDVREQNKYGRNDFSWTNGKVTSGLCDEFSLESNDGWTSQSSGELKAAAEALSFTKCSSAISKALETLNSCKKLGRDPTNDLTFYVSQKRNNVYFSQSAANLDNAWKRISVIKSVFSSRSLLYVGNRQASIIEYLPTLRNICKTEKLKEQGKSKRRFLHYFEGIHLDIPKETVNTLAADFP

| Compound | Potency | activity change, negative = inhibition |
| --- | --- | --- |
| Cc1cc(OCC(=O)Nc2ccncc2)cc(C)c1Cl | inconclusive: 6.28 µM [inhibitor, partial curve] |  |
| Cc1ccc2c(c1)S/C(=C/c1ccc[n+](CCO)c1)N2C |  | inactive: 1.54% |
| CCCCc1ccc(NC(=O)c2ccc(N(C)S(C)(=O)=O)cc2)cc1 | inconclusive: 0.396 µM [inhibitor, full curve] |  |
| O=C(NCc1cccnc1)c1ccc(NC(=O)c2ccc(Br)cc2)cc1 |  | inactive: -9.97% |
| Nc1nnc(SCC(=O)Nc2ccc3nc(SCC(=O)Nc4ccccc4)sc3c2)s1 | active: 0.888 µM |  |
| COc1ccc(NC(=O)c2c(N)no[n+]2[O-])cc1 |  | inactive: 13.9% |
| COCCn1c(C(C)C)nc2oc3ccccc3c(=O)c2c1=O |  | inactive: 4.76% |
| Cc1cc(NNC(=O)Nc2cccc(Cl)c2)nc2c1c(C)nn2C | inconclusive: 0.0056 µM [inhibitor, full curve, poor fit] |  |
| O=C(NNc1ccnc2cc(Cl)ccc12)C1CCCCC1 |  | inactive: -8.91% |
| Cc1nn(C)c(C)c1/C=C/C(=O)c1ccc(Cl)cc1Cl |  | inactive: 5.23% |
| O=NN(CCc1ccncc1)c1ccc(OCc2ccccc2)cc1 | inconclusive: 0.0063 µM [inhibitor, full curve] |  |
| Cc1csc2ncnc(NCCc3ccccn3)c12 | inconclusive: 0.445 µM [inhibitor, partial curve] |  |
| O=C(Nc1ccc(N2CCOCC2)cc1)c1cccc(S(=O)(=O)N2CCCCCC2)c1 | inconclusive: 19.9 µM [inhibitor, partial curve] |  |
| O=C(/C=C/c1ccc(F)cc1)NC(=S)NNC(=O)c1cnccn1 | inconclusive: 5.6 µM [inhibitor, full curve] |  |
| CCOC(=O)N1CCC(NC(=O)C2CCCN(Cc3nc(-c4ccc(CC)cc4)oc3C)C2)CC1 (configuration not stated) | active: 7.92 µM |  |
| COc1ccc(CCc2nnc(CCC(=O)N(C)Cc3ccnc4ccccc34)o2)cc1 | inconclusive: 19.9 µM [inhibitor, partial curve] |  |
| CSc1nc(N)nc2c1ncn2CC(=O)N1CCN(Cc2c(C)cc(C)cc2C)CC1 | inconclusive: 1.58 µM [inhibitor, full curve] |  |
| O=[N+]([O-])c1cc2c(c(CSc3nnc(Nc4ccccc4)s3)c1)OCOC2 | inconclusive: 19.9 µM [inhibitor, partial curve] |  |
| NC(=O)c1ccc(N2CCN(S(=O)(=O)c3cccs3)CC2)c([N+](=O)[O-])c1 | inconclusive: 14.1 µM [inhibitor, partial curve] |  |
| Cc1cc(C(=O)CSc2nc(N)cc(=O)[nH]2)c(C)n1-c1ccc(OC(F)F)cc1 |  | inactive: -6.14% |
| Cc1cccc(C(=O)OCC(=O)c2c(N)n(CC(C)C)c(=O)n(C)c2=O)c1[N+](=O)[O-] | active: 12.5 µM |  |
| COc1ccc(CCNc2ncnc3sccc23)cc1OC | inconclusive: 4.45 µM [inhibitor, partial curve, poor fit] |  |
| COc1cc(C)c(Br)cc1S(=O)(=O)NCc1ccncc1 |  | inactive: -6.52% |
| COc1ccc(NC(=O)C2CCN(c3nc(C)nc4c3CCC4)CC2)cc1 | inconclusive: 1.41 µM [inhibitor, partial curve] |  |
| O=C(NC1CCCC1)c1cc(COc2ccc3ncccc3c2)on1 | inconclusive: 0.0126 µM [inhibitor, full curve] |  |
| CC1CCc2nc(NC(=O)c3ccc(S(=O)(=O)N4CCCc5ccccc54)cc3)sc2C1 (configuration not stated) | inconclusive: 5.6 µM [inhibitor, full curve] |  |
| O=C1c2cccc(OCc3ccc(F)cc3)c2CCN1Cc1ccc(F)cc1 | active: 12.5 µM |  |
| Cc1ccc(Nc2nc(-c3ccncc3)nc3ccccc23)cc1 | active: 3.97 µM |  |
| O=C1c2cccc(OCc3ccc(F)cc3)c2CCN1Cc1ccccc1 | inconclusive: 15.8 µM [inhibitor, partial curve] |  |
